Where “and” joins values, the source holds several entries; their conditions need not be identical. Equal entries are not always repeated. The whole screen tested about 16,000 compounds, of which about 40 (0.2%) were called active. Roughly 1% stayed inconclusive and do not appear here. Calls follow the shape of the dose curve; as a rule, active = well fitted activation curve with a large enough effect; inconclusive = small, poorly fitted or top-dose-only effect, or another doubt; inactive = no such curve, though single readings can be large or run the other way. Some of the results follow.
Each compound was assayed against Rap guanine nucleotide exchange factor 4 (Homo sapiens) (UniProt Q8WZA2) (assay: Validation qHTS for agonist of cAMP-regulated guanine nucleotide exchange factor 4 (EPAC2)). Conditions: EPAC2 Rap1B BODIPY-GDP exchange, fluorescence; activation: hits give high values.
Sequence of UniProt Q8WZA2 (Q8WZA2 whole entry, looked up): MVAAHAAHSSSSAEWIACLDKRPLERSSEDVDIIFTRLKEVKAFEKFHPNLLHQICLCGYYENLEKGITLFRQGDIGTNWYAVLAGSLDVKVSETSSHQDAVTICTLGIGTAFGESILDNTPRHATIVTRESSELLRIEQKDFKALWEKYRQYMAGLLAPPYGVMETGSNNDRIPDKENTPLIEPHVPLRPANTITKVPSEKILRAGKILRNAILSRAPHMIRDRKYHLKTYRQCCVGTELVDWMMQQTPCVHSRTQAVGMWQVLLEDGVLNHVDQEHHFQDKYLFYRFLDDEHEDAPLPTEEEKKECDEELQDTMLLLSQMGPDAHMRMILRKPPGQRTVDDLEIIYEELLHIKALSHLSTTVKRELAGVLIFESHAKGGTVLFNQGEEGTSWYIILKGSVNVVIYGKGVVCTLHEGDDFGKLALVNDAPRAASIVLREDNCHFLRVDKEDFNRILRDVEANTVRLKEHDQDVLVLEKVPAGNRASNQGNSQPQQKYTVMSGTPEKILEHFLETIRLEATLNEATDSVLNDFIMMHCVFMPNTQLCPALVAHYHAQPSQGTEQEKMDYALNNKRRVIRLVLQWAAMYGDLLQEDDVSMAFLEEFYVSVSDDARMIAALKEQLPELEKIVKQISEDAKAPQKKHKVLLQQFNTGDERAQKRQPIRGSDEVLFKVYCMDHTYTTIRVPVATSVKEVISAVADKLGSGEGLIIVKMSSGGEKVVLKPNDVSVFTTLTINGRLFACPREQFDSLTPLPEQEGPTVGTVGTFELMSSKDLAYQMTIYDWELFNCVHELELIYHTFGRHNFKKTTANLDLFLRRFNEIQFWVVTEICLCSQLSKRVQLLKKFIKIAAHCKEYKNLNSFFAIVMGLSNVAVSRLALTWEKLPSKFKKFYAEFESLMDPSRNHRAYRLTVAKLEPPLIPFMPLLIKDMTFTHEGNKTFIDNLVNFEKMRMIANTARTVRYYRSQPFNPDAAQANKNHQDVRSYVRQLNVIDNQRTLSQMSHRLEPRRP
In short: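 Signal normalized against 6.5 mM cAMP as agonist control. Mix of EPAC2 (100 nM), RAP1B-BODIPY-GDP (250 nM) and GDP (50 uM) was read kinetically at 480/540 nm, every 5 min over 30 min, after 5 min room-temperature incubation with compound.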
% is scaled to controls: 0 for no effect and ±100 for the full control effect.
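Also: exchange makes BODIPY-GDP fluorescence drop when released from Rap1B; series mostly up to about 150 µM.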

activation, inactive:
CC1CCC(C(C)C)[C@H](OC(=O)c2ccccc2)C1 (some centres undefined) 0.156%
O=c1cc(-c2ccccc2)oc2cc(O)cc(O)c12 -3.99% and -17.6% and -16.4%
c1csc(CNc2ncnc3ccc(-c4ccc5c(c4)OCO5)cc23)c1 -3.98%
CC1CN(CCC(=O)NC(c2cccnc2)C(F)(F)F)Cc2cc(Cl)ccc2O1 (centres undefined) 0.0876%
CCOC(=O)C[C@H]1c2cc(F)ccc2S(=O)(=O)N1C1CCCC1 -9.78%
CCN(Cc1ccncc1)Cc1ccc2c(c1)CN(C(=O)c1cccc3c(C)c(C)[nH]c13)CCO2 -7.98%
C1=C(CN2CCOCC2)COc2c1cccc2OC[C@@H]1CNCCO1 -18.7%
Oc1cc(O)cc(O)c1 -11.7%
COc1ccc(NC(=O)N2CC3(CCN(C(=O)c4csnn4)CC3)C2)cc1 1.54%
O=S(=O)(c1ccccc1)N1CCC2(CCCN(c3ncccn3)C2)CC1 9.61%
O=c1cnc2cnc(Nc3ccccc3)nc2n1Cc1ccc(F)cc1 -5.67%
O=S(=O)(c1ccccc1)N1CCC2(CCCN(c3ccccc3)C2)CC1 -21.6%
COc1cccc(CN2CCCC(c3nc(-c4ccncc4)ncc3-c3ccccc3C)C2)c1O (centres undefined) -21.6%
Cc1cc2nc3ccc(=[N+](C)C)cc-3sc2cc1N -3.42%
CCCCCCc1ccc(N2C[C@H](CCCCC)[C@@H](CC(=O)NCc3ccc(OC)cc3)C2=O)cc1 -14.2%
C=C[C@@]1(C)CC(=O)[C@]2(O)[C@@]3(C)[C@@H](O)CCC(C)(C)[C@@H]3[C@H](O)[C@H](OC(C)=O)[C@@]2(C)O1 -4.75%
CCCN1CCC(=O)N([C@H](CO)Cc2ccccc2)CC1 -8.81%
CN1CCN(c2ncnc3ccc(-c4cccc(C#N)c4)cc23)CC1 -9.47%
CN(C)c1ccc(/C=C/c2ccnc3ccccc23)cc1Cl -5.92%
C/C(=C(\CCOP(=O)(O)O)SC(=O)c1ccccc1)N(C=O)Cc1cnc(C)nc1N -20%
O=C1CCC[C@@H]2[C@@H](Cc3ccccc3)[C@@H](Nc3ccccc3)C[C@@H]3CCN1[C@@H]32 -36.7%
CC(=O)SC1CC2=CC(=O)CC[C@]2(C)C2CC[C@@]3(C)C(CC[C@@]34CCC(=O)O4)C12 (some centres undefined) -18.5%
CC(=O)c1c(O)c(C)c(O)c2c1OC1=CC(=O)C(C(C)=O)C(=O)[C@@]12C (some centres undefined) -5.68%
CC(C)(C)C(=O)OCC(=O)[C@H]1CC[C@H]2[C@@H]3CCC4=CC(=O)CC[C@]4(C)[C@H]3CC[C@]12C 11.3%
COc1ccc(CN2CCC3(CC2)c2ccccc2[C@@H](NC(=O)c2ccccc2OC)[C@@H]3O)cc1O -9.28%
CN=C(NC#N)Nc1ccc(C2=NNC(=O)CC2C)cc1 (centres undefined) -6.92% and -8.13%
O=C(c1cc(C(F)(F)F)cc(C(F)(F)F)c1)N1CCC2(CC1)CCN(c1ccccn1)CC2 -18.9%
O=c1c(-c2ccc(Cl)cc2)nc2cnc(N3CCNCC3)nc2n1CCc1ccccc1 -11.7%
C[C@H](N)[C@H](O)c1cccc(O)c1 3.96%
COc1ccc(C(=O)/C(Br)=C\C(=O)O)cc1 -8.52%
COC(=O)c1ccccc1NC(=O)c1ccc(F)cc1 -12.4%
COc1cccc(-c2ccc3ncnc(N4CCOCC4)c3c2)c1 1.49%
CC(=O)[C@@]1(O)CC[C@H]2[C@@H]3C[C@H](C)C4=CC(=O)CC[C@]4(C)[C@H]3CC[C@@]21C 1.05%
O=C(CO)[C@@H](O)[C@H](O)[C@H](O)CO -13.5%
CC1(C)S[C@@H]2[C@H](NC(=O)C(C(=O)O)c3ccccc3)C(=O)N2[C@H]1C(=O)O (some centres undefined) -14.6%
O=C1CCC[C@@H]2C[C@@]3(C[C@@H]4CCN1[C@H]24)Nc1cc([N+](=O)[O-])ccc1NC3=NC1CCCCC1 -24%
Cc1nc(C)c(CC(=O)N2CCOc3ccc(CN4CCOCC4)cc3C2)s1 -5.71%
Cn1c(C(c2cc3ccccc3n2C)c2cc3ccccc3n2C)cc2ccccc21 11.4%
CCOC(=O)OCC/C(SC(=O)OCC)=C(\C)N(C=O)Cc1cnc(C)nc1N -3.83%
CCCS(=O)(=O)NCc1c(C)ncc2c1CCN(C(=O)/C=C/c1ccccc1)C2 -17.3%
CCNc1ncc2nc(-c3ccc(F)cc3)c(=O)n(CCOC)c2n1 -14.6%
CCN(CC)CCOC(=O)C(Cc1cccc2ccccc12)CC1CCCO1 (centres undefined) -12% and 11.3%
O=c1c(-c2ccccc2)nc2cnc(N3CCOCC3)nc2n1CCc1ccccc1 -4.01%
C[C@H](CC[C@@H]1OC1(C)C)C1CC[C@H]2[C@@H]3CC=C4C[C@@H](O)CC[C@]4(C)[C@H]3CC[C@]12C (some centres undefined) 3.89%
COc1c(-c2ccccc2)oc2c(ccc3occc32)c1=O 4.26%
Cc1c(C(=O)O)c(O)cc2c1C(=O)c1c(O)c([C@@H]3O[C@H](CO)[C@@H](O)[C@H](O)[C@H]3O)c(O)c(O)c1C2=O -3.4%
Cc1ccc(CN2[C@@H](CC3CCCCC3)COCCS2(=O)=O)cc1 -34.4%
Cc1cc(C)c2nccc(/C=C/c3ccc(N(C)C)cc3)c2c1 3.15%
COc1ccc(C(=O)N2CCC[C@@]3(CCN(C(=O)Nc4cccc(C#N)c4)C3)C2)cc1 -15.4%
O=C1C[C@@H]2c3c(cccc3CN1Cc1ccccc1)C[C@@H](O)[C@H]2O -14%
NC(=NCCCCCCN=C(N)/N=C(\N)Nc1ccc(Cl)cc1)/N=C(\N)Nc1ccc(Cl)cc1 -10.4% and -4.44%
CC(C)(C)C(=O)C(Oc1ccc(Cl)cc1)n1ccnc1 (centres undefined) -11.2%
CC(O)(COc1ccccc1)c1ccc2c(c1)CN(Cc1cccc3ncccc13)CCO2 (centres undefined) -11.1%
CC(C)=CCC/C(C)=C/CC/C(C)=C/CO -9.49% and -37.2% and -7.85%
Cc1nc2sccn2c(=O)c1CCN1CCC(=C(c2ccccc2)c2ccc(F)cc2)CC1 -3.89% and -8.69%
CC(=O)N1CCC[C@@]2(CCN(Cc3ccc(C#N)cc3)C2)C1 -27.6%
CC(C)(C)C1CCC(=O)N(CCOc2ccccc2)CC1 (centres undefined) -40.1%
S=c1ccss1 -12.1%
N[C@H](C(=O)O)c1ccc(C(=O)O)cc1 -5.27% and 3.47%
CC1=C(CC(=O)O)c2cc(F)ccc2/C1=C\c1ccc(S(C)(=O)=O)cc1 -54.7%
NC(N)=NC(=O)c1nc(Cl)c(N2CCCCCC2)nc1N 7.58% and -13.3%
COC(=O)CC1[C@@]2(C)C[C@@]34OC5(C)OC6(CC[C@@]7(C)C(c8ccoc8)OC(=O)C(C(C)=O)C7[C@]6(O5)C(O)[C@@]3(O)C2O)[C@]14C (some centres undefined) -14.7%
CS(=O)(=O)c1ccc(-c2cc(Br)sc2-c2ccc(F)cc2)cc1 -0.502%
O=C1CN(/N=C/c2ccc([N+](=O)[O-])o2)C(=O)N1 42.9% and -14.3%
c1ccc2c(c1)CN1CCCC1=N2 -27.5% and -15.8%
CC(C)C[C@@H](CSc1ccccc1)N1CCN(CCc2ccccc2)CCC1=O -33.1%
NCC1O[C@@H](O[C@H]2C(O)C(O[C@@H]3C(O[C@H]4OC(CO)C(O)C(O)C4N)C(N)CC(N)[C@H]3O)O[C@@H]2CO)C(N)C(O)C1O (some centres undefined) -11.5%
COc1ccc(NC(=O)N2CC3(CCN(C(=O)c4ccco4)CC3)C2)cc1 2.23%
O=c1cnc2cnc(Oc3cccc(Cl)c3)nc2n1CCc1ccccc1 3.2%
COc1ccc2[nH]cc(CCNc3ccnc(-c4cccnc4)n3)c2c1 8.22%
Cc1ccc(CN2[C@@H](Cc3ccccc3)C(=O)CS2(=O)=O)cc1 -24.1%
COc1ccc(C(=O)N2CCC3(CCCN(C(=O)Nc4cccc(C#N)c4)C3)CC2)cc1 -15.3%
Cc1ccccc1OCC(O)CO (centres undefined) -11%
CCCCCCCCCCCCCCCCCCc1ccc(C(=O)/C=C\C(=O)O)cc1 -34.6%
CSCC[C@H](NC(=O)[C@H](Cc1ccc(OS(=O)(=O)O)cc1)NC(=O)[C@@H](N)CC(=O)O)C(=O)NCC(=O)N[C@@H](Cc1c[nH]c2ccccc12)C(=O)N[C@@H](CCSC)C(=O)N[C@@H](CC(=O)O)C(=O)N[C@@H](Cc1ccccc1)C(N)=O -13.9% and -2.4%
NS(=O)(=O)c1cc2c(cc1Cl)NC(CSCc1ccccc1)=NS2(=O)=O -13.2%
Cc1cc(C(=O)Nc2ccccc2-c2nc(CNC(=O)c3cc4ccccc4cn3)c(C)o2)c(C)o1 -3.52%
CS(=O)(=O)N1CCC2(CC1)CN(Cc1ccc(C#N)cc1)C2 -1.21%
c1cncc(-c2nc(NCc3cccs3)c3ccccc3n2)c1 -0.0979%

Reference: PubChem BioAssay AID1645887 (National Center for Advancing Translational Sciences (NCATS), 2021)
